In the supplement of paper PMC11417369:
± gives the standard deviation of the averaged measurements. Some of the results follow.

What follows are sequences tested on PfAP2-I AP2 domain 3 (GST-tagged) (assay: gcPBM binding intensity (ln(normalized median fluorescence intensity)); higher = stronger DNA binding).
Outline: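 Binding of GST-tagged P. falciparum DNA-binding domains, expressed in E. coli and used at about 25 μg on average, was carried out for 1 h in 1× PBS containing 1% milk, 0.2 mg/ml BSA, 0.5% salmon testes DNA and 0.03% Triton X-100. The target was an Agilent 4 × 180k array of primer-extended double-stranded 36-bp intergenic genomic probes plus negative controls, read with Alexa488 anti-GST antibody at 488 nm. Binding intensity is the highest Masliner-normalised natural-log median intensity across replicate spots of either probe orientation.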

Sequence | gcPBM binding intensity (ln)
GAACTCATTACAAAGTGTACAAATTAAATAAATGGT [XGTACX_site3995] | 8.02 ± 0.54
TTTTTCTTATTTGGATTGCACTACATATATATATAT | 9.77 ± 0.28
AGGTGCTTAATATATACACACATACAGATATATATA [CACACA_site5552] | 10.7 ± 0.71
TATAAATTTATATATGCATGTCAGAAAAAAAAGTAA [TGCATGCA_site414] | 8.29 ± 0.54
CAACAAAATAAACACACACACACAAACACAAAAAAA [CACACA_site5806] | 8 ± 0.28
ATATATAAATATATATGTACATAAATATATATCTTT [XGTACX_site6910] | 7.62 ± 0.45
AAGAAAAAAAAAAAAACACACATATATATATATATA [CACACA_site2027] | 9.61 ± 0.2
TGTATACCTTAATATACACACATACCTATATTTATA [CACACA_site6746] | 7.67 ± 0.49
TATAAATAGAGGAAGCGTACATATATATATATATAT [XGTACX_site4993] | 9.38 ± 0.21
GGATATTAATAAATATGTACATATGTAGATTTATTA [XGTACX_site554] | 7.73 ± 0.41
AAATAAATAAATAGACGTACAAAAATATTATACATT [XGTACX_site6776] | 7.91 ± 0.12
GATATGATGTGTTTGGTAGTTTTTGATGTTGGCATG [GTGCAC_negctrl_site506] | 7.77 ± 0.42
AATAATGAAAAAATGAATAAAATTACTATATAATTC [XGTACX_negctrl_site457] | 7.25 ± 0.55
TATAAATGTGTATGCGCATGTAAAAATATAATTTAT [TGCATGCA_site750] | 8.22 ± 0.71
GTAAATAATAAACACCGTACATGGTATAATTCAATG [XGTACX_site3655] | 7.6 ± 0.59
CACGCGCACGAACACACACACACACGCATATAAATA [CACACA_site7103] | 8.29 ± 0.41
ATATTATTTTATTTTTGTACAGATATCTTTAAAAAA [XGTACX_site3734] | 7.94 ± 0.45
TACAGATAAATATACATACATATATATATATATATA [XGTACX_negctrl_site182] | 8.89 ± 0.83
TTTTTTTTTTTTTTTGCACACTTAAATTTGGTGGGG [CACACA_site2344] | 9.89 ± 0.19
AATACATACATACATACATGCATATATATATATATA [TGCATGCA_site462] | 9.46 ± 0.73
TTATTAAAAATGGTATGTACGCACATAATATATATA [XGTACX_site3230] | 8.56 ± 0.51
AACATCATCTCTCCACAACAACAAAAAAAAAAATAC [CACACA_negctrl_site311] | 8.12 ± 0.49
TATTTTTATTGGTGAATACACACGTATATATATATT [CACACA_site2401] | 7.96 ± 0.45

Sequence | gcPBM binding intensity (ln)
TGTTTATGTTTACATGTGCGCATTACAGAAAAAAAA [GTGCAC_site9669] | 8.89 ± 0.12
ACATGTATACTTTTTACGAAAAAAAAAAAAAAAAAA [CACACA_negctrl_site1638] | 8.05 ± 0.69
TTTTTATTTAAAAGTAGTACAAGGGTTATTATTAAC [XGTACX_site1555] | 8.13 ± 0.43
GAAATCTAATTTATTACACACATTTGAAAAAAATTC [CACACA_site6640] | 7.74 ± 0.44
AATTTTTTGAATAATTGTACATATTTGGTTAAATAT [XGTACX_site3612] | 7.64 ± 0.29
TTACTAAGAAGGATTTATTTTATAAAAATATTTATT [XGTACX_negctrl_site549] | 7.25 ± 0.46
TTATATTTTTTTGAGTGTACTTTTTGTGTAAAATTC [XGTACX_site2155] | 7.89 ± 0.43
ACCCATTTTTGTTGTTCTATATATTCGTGAATCATT [CACACA_negctrl_site614] | 8.13 ± 0.44
ATATTTTATACTTGCACACAAAATATATTAGAATGT [CACACA_site1985] | 8.77 ± 0.3
ATATTGCTTATTTGATGTACGAATACACTAGTATTA [XGTACX_site4536] | 7.79 ± 0.64
ATACTAAATGAACACACACACATATAGATTTATAAC [CACACA_site6200] | 7.88 ± 0.47
TATCTGTATATGTGTACACATATTCTTAACTCACGC [CACACA_site4255] | 8.12 ± 0.54
GAACAACAACAAAAAAAAAAAAAAAAAAAAAAAAAA [CACACA_negctrl_site199] | 8.12 ± 0.83
TAAATAAATATATGTACACACACAAATATATACATA [CACACA_site8577] | 7.83 ± 0.25
TATATGATATAATATACACACATACATATATATATA [CACACA_site8066] | 8.91 ± 0.057
ATTTTATGAAATGTTGCACACAAAAAACAACATGTT [CACACA_site8408] | 8.95 ± 0.092
ATATTTAATACAAATACACACACAAATATATACATA [CACACA_site9248] | 7.87 ± 0.63
ATGGGAAAAACATTCCGTACATACATACACATATAT [XGTACX_site8263] | 7.76 ± 0.59
CTGAATTTTTATAACTGTACATATTTGATATAAAAA [XGTACX_site183] | 7.75 ± 0.33
AATACATACATATATACATGCATACATATAAATATA [TGCATGCA_site674] | 8.29 ± 0.78
GAACAAAAAAAAAATTGTACACAATTTTTTAAAATT [XGTACX_site4455] | 7.67 ± 0.32
ATGATTTATTATTATACACACAAAAAAAAAAAAGGA [CACACA_site264] | 7.92 ± 0.46
AAACAAAAAAAATAAGCACACATATATATATATATA [CACACA_site8173] | 9.55 ± 0.54

Sequence | gcPBM binding intensity (ln)
GCTTATAAGATATGCACACACAACACTTACAAAAAA [CACACA_site817] | 8.74 ± 0.2
AAAATTATATGTAATTGTACGGAATTATATACGCAA [XGTACX_site2048] | 7.87 ± 0.56
TTTTTTAAAAATATTATCATCGTAACAAGAAATCGA [CACACA_negctrl_site1111] | 7.74 ± 0.4
TCCTGTGGTTATATAACACACATTATTGCTTATAAG [CACACA_site6823] | 8.19 ± 0.4
ATATATGGGTAGTATACACACTGTATATTTAGGAAT [CACACA_site7357] | 7.87 ± 0.65
GTATGAAAAAAATATGCATGCTAAATAATAAATGTT [TGCATGCA_site352] | 7.95 ± 0.64
TATATATATATACATACATATAAAGTTACATAAACA [CACACA_negctrl_site432] | 9.31 ± 0.39
TAGATTTTTTTACATTGTACATATTTTTTCTTATAG [XGTACX_site293] | 7.73 ± 0.55
GAACAAACAAAGAAAGAACACACATACACAATATAC [CACACA_site8918] | 8.31 ± 0.32
TTTTTTAAAATATAAAATATGTACAAATATGTTGAA [GTGCAC_negctrl_site379] | 7.97 ± 0.3
TATAAAATATAAATTTGTACATATAAAATATTTTAT [XGTACX_site7462] | 7.72 ± 0.23
TAATAGTTATAAAATACACACCAGGCATGATAAATG [CACACA_site4335] | 7.62 ± 0.64
AATATTTTAAAAAAATGTACTTTTAACCCTTATTGG [XGTACX_site3490] | 7.65 ± 0.16
CATATTATTTATATTTGTACACAGCGATATGAAATA [XGTACX_site7717] | 7.95 ± 0.4
TATATATATATATATGTGCACATATATATGATATTA | 9.79 ± 0.28
CTTACATAAAATATCACACACATAAAAAAACAATAT [CACACA_site1901] | 8.02 ± 0.7
CACCAATTCATATGCACACACATCTGCATATTATAG [CACACA_site6925] | 9.21 ± 0.26
ATATCGCACGTTTGAAGTACATAAAAACGATTAATA [XGTACX_site7684] | 8.78 ± 0.042
TTATATAAATATAAGGTGCTGGGGTTTATTACATAT [GTGCAC_site9909] | 8.07 ± 0.54
ATTTCGTAATTTATATCACACACATATATATATAAT [CACACA_site9021] | 8.06 ± 0.53
ATCATTTTTATAAATTGTACAAATATTTTTTATACA [XGTACX_site7551] | 7.95 ± 0.37
AATAAATAAATATATTGTACATATATATATATATAT [XGTACX_site8627] | 9.41 ± 0.67
CGAAAGGAAATATAACGTACATAAGATTATATTCAC [XGTACX_site3868] | 7.74 ± 0.67

Sequence | gcPBM binding intensity (ln)
ATGCATACACTTATATGTACACATTTACATATTATT [XGTACX_site2841] | 8.02 ± 0.44
TATTAAAAGAAAAAAAAAAAAAAATTAATACATATA [XGTACX_negctrl_site582] | 7.24 ± 0.3
ATGAACAAGGGGCACACACACATTATGACTAATTTA [CACACA_site3204] | 8.22 ± 0.38
TATTAATATATAGTAGTGCAATAAAGATATACTGAA | 10.9 ± 0.58
AACATACTCACGAACATACACACGGACATACATACG [CACACA_site603] | 8.27 ± 0.4
ATATGCTATTAATTATGTACATATATATATATATAT [XGTACX_site4901] | 9.24 ± 0.88
GTACATTATATATATACACACATACATAATAAAGAA [CACACA_site5528] | 8.12 ± 0.23
ACTACGTGTCAAAAATATTAATTACAAATGAATAAA [GTGCAC_negctrl_site248] | 7.54 ± 0.32
GGACTATACAGTTATACACACACATATATATATAAT [CACACA_site7991] | 8.02 ± 0.57
TACATATTTACTATCACACACACGATATATATAAAT [CACACA_site1242] | 8.04 ± 0.24
TACTTAAAAAAAAAAAAAATAAATATTATGTATTAT [CACACA_negctrl_site138] | 7.23 ± 0.47
ATACGAAAAAATAGACGTACTATGAAATAATAATTT [XGTACX_site8387] | 7.76 ± 0.6
TTTAGTGAGTTTGTTGTGCACTGAAAAAATTACAAT | 11.1 ± 0.18
TAATATTTTAATTGTGTGCACATTAATATTATAAAA | 10.1 ± 0.16
TATATTATTTTTTGTGGTACATGTATTTTTACCTAA [XGTACX_site4348] | 7.9 ± 0.44
AAAACAAACGGACACACACACATATATATATATATA [CACACA_site5924] | 9.63 ± 0.45
ACATGTAAATTTACATGTACATGTAACACTTAATAT [XGTACX_site4575] | 8.02 ± 0.45
TGTAATATTTTTCATGCATGCTCTTCTTTTACATAA [TGCATGCA_site144] | 8.21 ± 0.69
ATAATTTATATTACTTGTACATATTTATATGAACGA [XGTACX_site3610] | 7.5 ± 0.33
TATATTAAACAATATACACACATTAATGTATCCATA [CACACA_site5523] | 7.66 ± 0.5
